For 22 molecules, binding signal results are on record in paper PMC12136788.

This is one part of the list.

The chains are these.
T1: UNK ZnF1-6 (called full-length) (human, UniProt Q9C0B0 30-357)
T1 sequence: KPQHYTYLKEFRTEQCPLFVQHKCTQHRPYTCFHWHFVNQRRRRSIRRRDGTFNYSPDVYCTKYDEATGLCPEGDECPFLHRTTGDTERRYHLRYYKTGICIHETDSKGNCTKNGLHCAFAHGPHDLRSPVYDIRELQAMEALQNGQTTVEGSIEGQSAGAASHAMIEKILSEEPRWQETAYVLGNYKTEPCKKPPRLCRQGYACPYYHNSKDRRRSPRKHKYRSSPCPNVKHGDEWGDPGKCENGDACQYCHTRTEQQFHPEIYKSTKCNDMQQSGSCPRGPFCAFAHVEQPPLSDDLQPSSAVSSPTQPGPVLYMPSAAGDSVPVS

B1: chr7:44121865:44121972:-|CDS|ENSG00000106628|unk|FALSE|unique (ssRNA)
RNA: GGGAGUUCUACAGUCCGACGAUCGUGCCAGUGGCAACCUACACCAACUCCUCACAACCCUUCCGGCUAGGAGAGCGCAGCUUUAGCCGGCAGUAUGCCCACAUUUAUGCCACCCGCCUCAUCCAAAUGAGACCCUUCCUGGAGCAACAGAGGAUUGAGCAUCA
B2: chr2:160273923:160274028:-|3pUTR|ENSG00000153250|unk|total|mutant (ssRNA)
RNA: GGGAGUUCUACAGUCCGACGAUCGGGCUUUUAAAAGGCCGUCAAUAAAAGUUGCUGAAAUUUUGGCUUUUUUAAAUAUGCCGCCGGUGUUUUUAAUGAUUUUUCACAUAAUGUGUAAGGCCGUGAAAUGCAAGAAGGGAAAAACAACAGAGGAUUGAGCAUCA
B3: chr8:108778973:108784180:-|three_prime_utr|ENSG00000164841|control|control|control (ssRNA)
RNA: GGGAGUUCUACAGUCCGACGAUCAAGUUUAUUUCACAAACCAACAGCCAGUAAGUGUUUUUGUUCUCUAUGUGUCUUCUAUUUAGAAGAAAAGCCAUGUAAGAUGUAUAAGAAACCACAACCAGCCACACCUAUCCUUCUGAACAACAGAGGAUUGAGCAUCA
B4: chr9:14719723:14720089:-|three_prime_utr|ENSG00000147869|control|control|control (ssRNA)
RNA: GGGAGUUCUACAGUCCGACGAUCUUCAGUCUGAAAAUGUUAAGUGGGUACAUAACAUUUUCAGGGAAAGGUGACUUGAAACGUAGUUUUAAAUUAGAACGAUAGAGGAAAUGAUAUUAGUCUAGUUAUUGGUACACGUUUGAGCAACAGAGGAUUGAGCAUCA
B5: chr5:75360489:75360590:+|3pUTR|ENSG00000113161|msi1|total|mutant (ssRNA)
RNA: GGGAGUUCUACAGUCCGACGAUCGCUCUUUCAGAGAGGUCUCAGGUUCUUUCCAUGCAGACUCCUCAGAUCUGAACACAGUUCCGUGCUUUACAUGCUGUGCUCUUUGAAGAGAUUUCAACAAGAAUAUUGUAUGUUAAAGCACAACAGAGGAUUGAGCAUCA
B6: chr11:61866962:61867357:+|3pUTR|ENSG00000134824|msi1|total|mutant (ssRNA)
RNA: GGGAGUUCUACAGUCCGACGAUCAGAUUCAGGGGAAGGGCAGGCACCAACAACUCAGAAUGGGGGCUUUCGGGGAGGGCGCCCCGUCCCCCCAGCUCUAAGCAGCCAGGAGGGACCUGCAUCUAAGCAUCUGGGUUGCCAUGGCAACAGAGGAUUGAGCAUCA
B7: chr13:25097967:25098071:+|CDS|ENSG00000151846|unk|total|mutant (ssRNA)
RNA: GGGAGUUCUACAGUCCGACGAUCAGAACUUCUUUAUAUGCUCGAGUCUCCAGAGUCACUCCGUUCUAAGGUUGAUGAAGCUGCCGCUGUACUACAAGCCCACCAAGCUAAAGAGGCUACCCAGAAAGCAGUUAACAGUGCUACCAACAGAGGAUUGAGCAUCA
B8: chr7:139028693:139028797:-|CDS|ENSG00000146858|unk|total|mutant (ssRNA)
RNA: GGGAGUUCUACAGUCCGACGAUCUUUCAGAUAAUCUCCACCUACAAGCAUAUGAAGCUGCACAAGAUGCUUGAAAAUACAGGCCGGAAUAUCCAAGAAGGACAGAGAAGUAUCAGCGAUAUGGUUUUGCGAUGCUUCACUGUGCAACAGAGGAUUGAGCAUCA
B9: chr11:4094911:4095012:+|5pUTR|ENSG00000167325|unk|FALSE|unique (ssRNA)
RNA: GGGAGUUCUACAGUCCGACGAUCAGCAGCGCCUGGAACCUAACCCUUCCCACUCUGUCACCUUCUCGAUCCCGCCGGCGCUUUAGAGCCGCAGUCCAGUCUUGGAUCCUUCAGAGCCUCAGCCACUAGCUGCGAUGCAUGUGACAACAGAGGAUUGAGCAUCA
B10: chr12:909583:909684:+|3pUTR|ENSG00000060237|unk|FALSE|bound_elsewhere (ssRNA)
RNA: GGGAGUUCUACAGUCCGACGAUCUAGCUCUGUCCUUUACUUAUUGAGACACUUUAACUUUUUCCUUUGUAUUUCCAUUGUAUUAGAUAAAUAAAUGUGAAUGUAAAAUUGUAUAAAUUACUGUACUUGAAUACUUCUGUUUCCCAACAGAGGAUUGAGCAUCA
B11: chr17:34256851:34257067:+|3pUTR|ENSG00000108691|msi1|total|mutant (ssRNA)
RNA: GGGAGUUCUACAGUCCGACGAUCUUAAGUAAUGUUAAUUCUUAUUUAAGUUAUUGAUGUUUUAAGUUUAUCUUUCAUGGUACCCGUGUUUUUCCGAUACAGAGACUUGGGGAAAUUGCUUUUCCUCUUGAACCACAGUUCUACCAACAGAGGAUUGAGCAUCA
B12: chr12:133204733:133204837:+|3pUTR|ENSG00000090612|unk|FALSE|unique (ssRNA)
RNA: GGGAGUUCUACAGUCCGACGAUCCAAAAAGAUAGUAGACAAUACACAGGAAAACUGAAUUUAGUAACCACUCUGAAAAUUUUUAGCAGCAAGUCAUACCUUUUUUUAAAAAGUUCAUACAGGUGAGGAACCAUGUUAAACGUUCAACAGAGGAUUGAGCAUCA
B13: ENSG00000067955:stop:overlap|stop_codon|ENSG00000067955|stop_codon|NA|stop_codon (ssRNA)
RNA: GGGAGUUCUACAGUCCGACGAUCAAAUGGAGGUGAGAGUUUCACAGCUGCUGGCAGUAACUGGCAAGAAGACAACAAGACCCUAGUCCUGGUUCCAAUUUAGGUGGUGGUGAUGACCUCAAACUUCGUUAAUUAAUAGCACAGCAACAGAGGAUUGAGCAUCA
B14: chr5:149857952:149860894:-|three_prime_utr|ENSG00000132915|control|control|control (ssRNA)
RNA: GGGAGUUCUACAGUCCGACGAUCACCACCCUUUCCUGGGAAGAGAUGACUCAAGCCAGUGGAAGACCACACACCUUGAGAAGUAGAAGAGUCAUAGGAUUUGAAAGCUGUUAGAGAAUUUAGCUUCCAGGACUGUUCAAUCUUCAACAGAGGAUUGAGCAUCA
B15: chr17:27756765:27757353:-|three_prime_utr|ENSG00000007171|control|control|control (ssRNA)
RNA: GGGAGUUCUACAGUCCGACGAUCCAAGUCUUAUUUCCUCAACGUUGCUCCCCAUCAAGCCCUUUACUUGACCUCCUAACAAGUAGCACCCUGGAUUGAUCGGAGCCUCCUCUCUCAAACUGGGGCCUCCCUGGUCCCUUGGAGCAACAGAGGAUUGAGCAUCA
B16: chr7:103374401:103374592:-|CDS|ENSG00000170615|control|control|control (ssRNA)
RNA: GGGAGUUCUACAGUCCGACGAUCCCUGCCCUAUGGGAGCUGCUGUUCCACAGCAUUCAUGAUGCAGUUUUAGGCAGCCAACUUAGAGAGGCACUUGCUGAACAGGAAGCCUCGGCUCCCCCUUCCCAGGAGGACUUGGAGCCCCAACAGAGGAUUGAGCAUCA
B17: chr1:67411267:67411372:-|3pUTR|ENSG00000142864|unk|FALSE|unique (ssRNA)
RNA: GGGAGUUCUACAGUCCGACGAUCAACUCAUUUCCAAACAUGUACCAUGUUUUAUAAACCUCUUGAUUUCCAGCAACAUACUAUAGAAAACACCUGCUACUCAAAACACAACUUCUCAGUGUCAUCCAUUGCUGUCGUGAGAGACAACAGAGGAUUGAGCAUCA
B18: chr11:22846921:22847509:-|three_prime_utr|ENSG00000255359|control|control|control (ssRNA)
RNA: GGGAGUUCUACAGUCCGACGAUCCUCCACCAUUUCGGAAAAAUAAACACAGUGCAAGUAUUUAAUAUCCAAGCUACAGGCUCUAGAAUUUUAUUAAAUGCCAUCUCUCACUACCAUAUUUUUCUUUCCUGUGGUAAACUUGAACAACAGAGGAUUGAGCAUCA
B19: ENSG00000124766:be:win_2401|3pUTR|ENSG00000124766|bound_else_gene|NA|bound_elsewhere_windowed (ssRNA)
RNA: GGGAGUUCUACAGUCCGACGAUCCAGUCAGUGGAGGGCGAGUGGUUUCGGAAAAAAAAAAAGAAAAAAAGAAAAAAAAAGAAAAAAAAAAGAUUUUUUUCUUCUCUUAAUCGGAAUCGUGAUGGUGUUGGAUUAUUUCAAUGGCAACAGAGGAUUGAGCAUCA
B20: chr1:193014253:193014354:-|3pUTR|ENSG00000116750|unk|total|mutant (ssRNA)
RNA: GGGAGUUCUACAGUCCGACGAUCUUAACCGGUAUAAGGAUUUUUCUUAUUAAUCUAAUAAAAUUCCUUAACCGGAAUUUCCACCGCUUAAGAGUGGUUUAUUUUAUCUGCAUCUUCUUUGGUGAUUGCAAAUCCCUUGUGAUACAACAGAGGAUUGAGCAUCA
B21: ENSG00000180900:stop:overlap|stop_codon|ENSG00000180900|stop_codon|NA|stop_codon (ssRNA)
RNA: GGGAGUUCUACAGUCCGACGAUCUGUGCAGCAGCCGCCGCCCCGUAAGGCCUGGGCGCCGUGGCCUGGGCCCUGUGCCCUCCUAGAGGAGCAGGCACCUCCCCCAGACUUGGGGUGGGGGCCCUGCCAGCUCCAGCACCACCCCAACAGAGGAUUGAGCAUCA
B22: chr20:63933867:63933968:+|3pUTR|ENSG00000101152|msi1|FALSE|unique (ssRNA)
RNA: GGGAGUUCUACAGUCCGACGAUCAUCAGAGUGGGCCCCUUGCCAGGUGGCUUUUCAGUUACAGAGUCCAGUGGACCAUUUUGUAGAACCAUGCAGCUCCCUGCGGAAGGUGGGGUAGGGUGGGAAAGAGGAGCAGGUCUGGAGCAACAGAGGAUUGAGCAUCA

The experiment has as its target T1, UNK ZnF1-6 (called full-length). Description: nsRBNS (natural sequence RNA bind-n-seq); RBNS binding buffer (assumed for nsRBNS): 25 mM Tris pH 7.5, 150 mM KCl, 3 mM MgCl2, 0.01% Triton X-100, 500 ug/ml BSA, 20 U/ml SUPERase-In, 4 C; UNK is unkempt and MSI1 is Musashi-1; names of the RNAs are library labels; protein concentration not given here; high values mean tight binding.
Regarding B1, the binding signal came out at 0.85 enrichment R.

Take B2: the binding signal was determined as 0.455 enrichment R.

Molecule B3 had a binding signal of 0.507 enrichment R.

Take B4: the binding signal was determined as 2.11 enrichment R.

B5 gave a binding signal of 0.227 enrichment R.

In turn, B6 displayed a binding signal of 0.845 enrichment R.

In turn, B7 came in with a binding signal of 0.61 enrichment R.

The molecule B8 gave a binding signal of 0.382 enrichment R.

As to B9, the binding signal turned out to be 0.88 enrichment R.

In the case of B10, the binding signal worked out at 12.7 enrichment R.

In turn, B11 gave a binding signal of 1.13 enrichment R.

For B12, the binding signal was determined as 3.23 enrichment R.

For B13, the binding signal is 0.965 enrichment R.

B14 registered a binding signal of 0.809 enrichment R.

In turn, B15 gave a binding signal of 0.605 enrichment R.

Turning to B16, the binding signal stood at 0.733 enrichment R.

Molecule B17 showed a binding signal of 0.583 enrichment R.

In turn, B18 returned a binding signal of 0.713 enrichment R.

B19 showed a binding signal of 0.947 enrichment R.

Take B20: the binding signal came to 0.372 enrichment R.

Regarding B21, the binding signal stood at 0.699 enrichment R.

Turning to B22, the binding signal amounted to 1.29 enrichment R.
